Molecular target: T1, neuron-myelin 5-mer signaling complex (NgR1, Lingo-1-Fc, p75, MAG, GT1b-Na) (mouse | human, UniProt Q9D1T0 35-516; Q9BZR6 30-430; P08138 31-210; P20916 22-504)
T1 construct: Lingo-1, mouse, residues 35-516; NgR1, human, residues 30-430; p75, human, residues 31-210 (the version used in the pull-down assays, by which the complex was made); MAG, human, residues 22-504; The fifth component is the ganglioside GT1b (no protein); also called 5-mer complex; 5-mer neuron-myelin complex; source: for ELISA and BLI eluted with 100 mM glycine-HCl pH 3.5 and brought to pH 7; not …
T1 sequence (Q9D1T0 35-516, chain 1 of 4): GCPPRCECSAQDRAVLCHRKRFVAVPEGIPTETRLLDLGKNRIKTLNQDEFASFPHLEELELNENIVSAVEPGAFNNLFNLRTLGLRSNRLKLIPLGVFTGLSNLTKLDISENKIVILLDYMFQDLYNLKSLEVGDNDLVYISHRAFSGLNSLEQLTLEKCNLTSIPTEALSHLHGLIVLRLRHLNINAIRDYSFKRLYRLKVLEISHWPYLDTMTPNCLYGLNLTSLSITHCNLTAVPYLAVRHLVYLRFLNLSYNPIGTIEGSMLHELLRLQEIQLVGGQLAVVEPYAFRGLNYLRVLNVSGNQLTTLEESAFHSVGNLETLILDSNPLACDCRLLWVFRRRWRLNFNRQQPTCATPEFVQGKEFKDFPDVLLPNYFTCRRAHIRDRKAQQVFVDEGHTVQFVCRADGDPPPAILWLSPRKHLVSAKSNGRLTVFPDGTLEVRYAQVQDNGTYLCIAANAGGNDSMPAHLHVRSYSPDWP
T1 sequence (Q9BZR6 30-430, chain 2 of 4, further chain): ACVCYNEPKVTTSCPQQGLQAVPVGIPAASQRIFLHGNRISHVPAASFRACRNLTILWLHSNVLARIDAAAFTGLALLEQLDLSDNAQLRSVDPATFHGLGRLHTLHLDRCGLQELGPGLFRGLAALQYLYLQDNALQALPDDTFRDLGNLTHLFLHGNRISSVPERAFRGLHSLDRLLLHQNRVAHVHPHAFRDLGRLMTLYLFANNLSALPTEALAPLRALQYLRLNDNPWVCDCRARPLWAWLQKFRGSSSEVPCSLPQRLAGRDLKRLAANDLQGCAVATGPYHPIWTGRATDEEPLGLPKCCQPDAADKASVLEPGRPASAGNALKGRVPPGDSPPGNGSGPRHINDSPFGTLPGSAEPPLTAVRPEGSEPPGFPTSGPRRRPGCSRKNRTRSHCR
T1 sequence (P08138 31-210, chain 3 of 4, further chain): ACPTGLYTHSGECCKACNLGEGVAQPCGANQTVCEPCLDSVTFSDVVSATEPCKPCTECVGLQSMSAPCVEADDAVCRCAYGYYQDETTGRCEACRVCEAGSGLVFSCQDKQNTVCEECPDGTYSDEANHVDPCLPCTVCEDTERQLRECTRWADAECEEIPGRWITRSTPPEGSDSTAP
T1 sequence (P20916 22-504, chain 4 of 4, further chain): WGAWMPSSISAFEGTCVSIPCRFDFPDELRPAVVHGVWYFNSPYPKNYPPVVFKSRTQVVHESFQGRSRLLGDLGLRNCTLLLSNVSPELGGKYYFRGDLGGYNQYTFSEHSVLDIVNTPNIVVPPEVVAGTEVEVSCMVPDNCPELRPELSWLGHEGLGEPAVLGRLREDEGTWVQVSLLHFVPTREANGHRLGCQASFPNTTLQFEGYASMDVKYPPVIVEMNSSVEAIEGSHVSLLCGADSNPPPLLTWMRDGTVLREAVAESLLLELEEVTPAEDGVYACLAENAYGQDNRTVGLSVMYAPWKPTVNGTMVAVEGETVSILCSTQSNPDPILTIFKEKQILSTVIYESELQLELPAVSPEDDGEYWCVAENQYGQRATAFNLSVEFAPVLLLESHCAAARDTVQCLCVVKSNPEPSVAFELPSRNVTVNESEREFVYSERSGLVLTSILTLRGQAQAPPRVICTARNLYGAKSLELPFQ
Assay: BLI; Blitz (Forte Bio); 5-mer complex (via Lingo-Fc) or p75-Fc loaded at 50 μg/ml on protein A sensors; ADAM17 ECD (E406A) or D+C in solution; HBS (20 mM Hepes, 150 mM NaCl pH 7.4); apparent KD
Details: both partners purified

B1: ADAM17 ectodomain (ECD), […], active-site mutant E406A (domain or fragment)
chain: not shown
notes: ADAM17, human; cloned as 20-650; the prodomain was cleaved off and the mature polypeptide consisted of MP, D and C domains ([…]); Removable Fc tag; surmise: cut off, since this form served as prey on protein A beads and as analyte on protein A sensors, and the Fc-tagged form is named apart; also called ADAM17 ECD; ADAM17 ECD (E406A); source: baculovirus-infected Hi-5 cells, purified (protein A …)
- Kd: ~500 nM
